The campaign covered roughly 420,000 compounds. About 50,000 (12%) were called active. The shares of active, inactive and inconclusive entries below differ from those in the screen. Calls come from the whole dose curve; as a rule, active = well fitted inhibition curve with a large enough effect; inconclusive = small, poorly fitted or top-dose-only effect; inactive = flat fitted curve, though single readings scatter. No potency is given beside an inconclusive call; the fits are too rough.
Assay: qHTS for Inhibitors of human tyrosyl-DNA phosphodiesterase 1 (TDP1): qHTS in cells in presence of CPT; note: nearly all actives have a fitted effect of over 55% in size
Conditions: chicken DT40 Tdp1-/-;hTDP1 cells + 20 nM CPT, ATP luminescence, 48 h; activity change, negative = growth inhibition: at 46.2 µM (top of the series)
Outline: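 Chicken DT40 Tdp1-/- cells complemented with human TDP1, 400 cells/well, exposed to compounds plus 20 nM camptothecin for at least 48 h at 37 C; viability read as ATP content by CellTiter-Glo luminescence.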
In the case of COC(=O)c1cc(C)nc2c1c(=O)nc(SCc1cccc(C)c1)n2C1CC1, the Potency is reported as inconclusive [inhibitor, partial curve].
In the case of O=C(Cc1n[nH]c(=O)c2ccccc12)N/N=C/c1cc2c(cc1Cl)OCO2, the Potency is reported as inconclusive [inhibitor, partial curve, poor fit].
In the case of CCOC(=O)N1CCN(C(=O)C[C@@H]2C[C@@]3(C(=O)OCC)CCC=C3N(CCC3=CCCCC3)C2=O)CC1, the Potency is reported as inconclusive [inhibitor, single point].
In the case of COc1cc(CNC(=O)c2cc(-c3ccc(F)cc3OC)n[nH]2)cc(OC)c1, the “activity change, negative = growth inhibition” value is reported as inactive: -19.7%.
With Cc1ccc(S(=O)(=O)N2CCN(c3ccccn3)CC2)cc1 the “activity change, negative = growth inhibition” value was inactive: -12.1%.
For O=C(c1cc2cc(F)ccc2[nH]1)N1CCCC(Nc2ccc(F)cc2)C1 (configuration not stated), the Potency was active: 14.6 µM.
In the case of Cn1c(SCC(=O)c2ccccc2)nnc1C1CC1, the Potency is reported as inconclusive [inhibitor, single point].
In the case of O=C(NC(=S)NCc1ccccc1)c1ccc(Br)cc1, the Potency is reported as inconclusive [inhibitor, single point].
In the case of CCOc1ccc(NC(=O)N(c2ccccc2)c2ccccc2)cc1, the Potency is reported as inconclusive [inhibitor, partial curve].
With Cc1nn(-c2nc(-c3ccc(F)cc3)cc(C(F)(F)F)n2)c(C)c1Br the Potency was inconclusive [inhibitor, single point].
For Cc1nc(SCC(=O)Nc2ccccn2)n[nH]1, the “activity change, negative = growth inhibition” value was inactive: 3.47%.
With COc1ccc(NC(=O)Cn2c(C)cc3ccccc3c2=O)c(OC)c1 the “activity change, negative = growth inhibition” value was inactive: 6.29%.
In the case of c1ccc(N2CCN(c3cnc4ccccc4n3)CC2)cc1, the Potency is reported as inconclusive [inhibitor, partial curve].
For O=C(c1ccc(S(=O)(=O)Nc2ccccc2F)cc1)N1CCC1, the “activity change, negative = growth inhibition” value was inactive: -7.23%.
In the case of CCOc1cc(/C=N/n2cnnc2)ccc1OC(=O)c1cccc([N+](=O)[O-])c1, the Potency is reported as inconclusive [inhibitor, single point].
In the case of CCOC(=O)C1CCCN(S(=O)(=O)NC[C@H]2O[C@@H](n3cnc4c(N)ncnc43)[C@H](O)[C@@H]2O)C1 (some centres not stated), the Potency is reported as inconclusive [inhibitor, single point].
With CCOc1ccc(Oc2nc(NCC(C)C)nc(NC(C)(C)C)n2)nn1 the Potency was inconclusive [inhibitor, single point].
For O=C(Nc1ccc(N2CCC(c3ccccc3)C2)c(C(=O)O)c1)c1ccc(Cl)cc1 (configuration not stated), the Potency was inconclusive [inhibitor, single point].
In the case of COc1cccc(NC(=O)CCc2c(C)nc3c4cccnc4nn3c2C)c1, the Potency is reported as inconclusive [inhibitor, single point].
In the case of CCOC(=O)C1=NNC(C(=O)c2ccc(OC)cc2)C1c1ccccc1 (configuration not stated), the Potency is reported as inconclusive [inhibitor, single point].
With COc1ccc(OC)c(/C=N/NC(=O)c2cc3c(OC)cc(OC)cc3[nH]2)c1 the Potency was inconclusive [inhibitor, single point].
With Cc1ccc(-c2nnc(SCC(C)C)n2C)cc1 the Potency was inconclusive [inhibitor, single point].
In the case of c1ccc2cc(Sc3ncnc4c3oc3ccccc34)ccc2c1, the Potency is reported as inconclusive [inhibitor, partial curve, poor fit].
With Nc1ccc2c(c1)OCCOCCOCCOCCOCCO2 the “activity change, negative = growth inhibition” value was inactive: -4.39%.
With Cc1occc1C(=O)N(C)CC1CCCN(CCc2ccc(Cl)cc2)C1 (configuration not stated) the Potency was inconclusive [inhibitor, single point].
With COc1ccc(OC)c(C2(O)CSC(=Nc3cccnc3)N2Cc2ccco2)c1 (configuration not stated) the Potency was active: 14.6 µM.
In the case of O=C(CCc1c[nH]c2ccccc12)OCc1ccc(Br)cc1, the “activity change, negative = growth inhibition” value is reported as inactive: -17.3%.
With O=C(Nc1ccc(NC(=O)N2CCN(c3ccccc3O)CC2)cc1)N1CCN(c2ccccc2O)CC1 the Potency was inconclusive [inhibitor, single point].
For Cc1c(C)n2c(SCC(=O)N3CCC(C)CC3)nnc2[nH]c1=O, the “activity change, negative = growth inhibition” value was inactive: -16.5%.
In the case of Nc1nnc(SCC(=O)OCC(=O)NC2CCCCC2)s1, the “activity change, negative = growth inhibition” value is reported as inactive: -9.59%.
In the case of CSc1ccc(CCNC(=O)CCCn2nc(C)c3sc4ccccc4c3c2=O)cc1, the Potency is reported as active: 14.6 µM.
In the case of CC(c1ccccc1)N1C(=O)/C(=C/c2ccncc2)SC1=S (configuration not stated), the Potency is reported as inconclusive [inhibitor, single point].
With Cc1ccccc1C(=O)Nc1ccnn1C1CCN(Cc2cccnc2)CC1 the “activity change, negative = growth inhibition” value was inactive: 0.145%.
In the case of CC(C)Cn1c(N)c(C(=O)CSc2ncccn2)c(=O)n(C)c1=O, the Potency is reported as inconclusive [inhibitor, single point].
For CCCCOc1ccc(NC(=O)C2OC3OC(C)(C)OC3C3OC(C)(C)OC23)cc1 (configuration not stated), the “activity change, negative = growth inhibition” value was inactive: -10.6%.
For O=C(Nc1cccc(F)c1)Nc1cccc(Cl)c1, the Potency was inconclusive [inhibitor, single point].
In the case of O=C(NC(c1ccccc1)c1ccc2ccccc2n1)C1CCN(Cc2ccc(Cl)c(Cl)c2)CC1 (configuration not stated), the Potency is reported as inconclusive [inhibitor, single point].
For CC(=O)c1ccc(NC(=O)CC2Nc3cccc4cccc(c34)NC2=O)cc1 (configuration not stated), the Potency was active: 18.4 µM.
For C/C(=N\N1CCN(c2ccccc2)CC1)c1ccc(O)cc1, the “activity change, negative = growth inhibition” value was inactive: -25.1%.
With Cc1cc(C)c(NC(=O)CN2CCN(S(=O)(=O)c3ccc4c(c3)OCCO4)CC2)c(C)c1 the “activity change, negative = growth inhibition” value was inactive: -28%.
For COc1ccccc1OCC(=O)N(Cc1ccc(Cl)cc1)CC1CCCO1 (configuration not stated), the Potency was inconclusive [inhibitor, single point].
In the case of CCC/C=C/c1ccc(CN2C(C)C(=O)N(Cc3cn(CC4CCCCC4)nn3)CCS2(=O)=O)cc1 (configuration not stated), the Potency is reported as inconclusive [inhibitor, single point].
With CCOc1cc(Cl)c(NC(C)=O)cc1OCC the “activity change, negative = growth inhibition” value was inactive: 2.39%.
In the case of COC(=O)CS(=O)(=O)c1nc2ccccc2nc1N1CCCCC1, the Potency is reported as active: 20.6 µM.
With CCCCn1c(CN2CCN(c3ccccc3)CC2)nc2c1c(=O)n(C)c(=O)n2C the Potency was active: 1.46 µM.
With CC(C)CCNC(=O)Nc1ccc2c(c1)N(C)C(=O)c1ccccc1S2 the Potency was active: 14.6 µM.
In the case of COc1ccccc1N1CCN(C(=O)c2cc3c(-c4ccc(Cl)cc4)nn(C)c3s2)CC1, the Potency is reported as inconclusive [inhibitor, single point].

Reference: PubChem BioAssay AID686979 (National Center for Advancing Translational Sciences (NCATS), 2013)
% is set by controls: 0 for no effect and ±100 for the full control effect; potency is the fitted concentration of half-maximal effect; tags give direction and shape of the fitted curve.
